This is an account of results in PubChem BioAssay (NCATS).

The other results are listed elsewhere or left out. Further columns of the screen follow, without active or inactive calls. Most of these compounds were active or inconclusive in the main read-out, so they are no random draw. Potencies come from curve fits of mixed quality, noted in brackets.

Usually AC50 stands for the midpoint of the concentration-response curve, whichever way the signal moves.
Tags tell the direction and shape of the fitted curve.

The first assay in a line: qHTS Assay for Lipid Storage Modulators (AID 1519). As to conditions: Drosophila S3 cells, BODIPY lipid droplet/cell ratio, laser cytometry; measured here: cell count channel max response; cells loaded with oleic acid. A digest of the protocol:
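Cells seeded at 5,000 per well were treated with compounds over a concentration series and loaded with oleic acid (400 uM, as added). Lipid droplet fluorescence (488 nm excitation, 500-530 nm channel) was read by laser-scanning cytometry and normalized to 20 uM Triacsin C.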
A general note: In qHTS, concentration-response curves come from the screen itself.
With `COc1cccc(Nc2ncc3nc(-c4cccs4)c(=O)n(C[C@H]4CCCO4)c3n2)c1`, the max response was -5.65%.

As for `CN(Cc1ccco1)c1ccnc(-c2ccoc2)n1`, the max response worked out at 24.7%.

`CC(=O)N1CCC2(CCCN(c3ccc(-c4ccccc4)cc3)C2)CC1`: the max response was determined as 19%.

For `O=c1c(CCc2ccccc2)nc2cnc(N3CCNCC3)nc2n1-c1ccccc1`, the max response was 26%.

As for `Cn1c(=O)c(-c2ccccc2)nc2cnc(Oc3ccccc3)nc21`, the max response amounted to 10.2%.

In the case of `COc1cccc(Cn2c(=O)c(C)nc3cnc(N4CCNCC4)nc32)c1`, the max response came out at 22.6%.

Turning to `O=c1c(-c2ccccc2)nc2cncnc2n1Cc1ccccc1Cl`, the max response turned out to be 24.7%.

In the case of `O=c1c(CCc2ccccc2)nc2cnc(Oc3ccccc3)nc2n1C1CC1`, the max response turned out to be 4.38%.

With `CC1CC2C3CC(F)C4=CC(=O)C=C[C@@]4(C)[C@@]3(F)C(O)C[C@]2(C)[C@]1(O)C(=O)COC(=O)C(C)(C)C` (stereo partly drawn), the max response was -2.65%.

As for `O=c1cc(-c2cccc(O)c2)oc2cccc(O)c12`, the max response was found to be 79.1%.

On to `Cc1noc(C)c1-c1nccc(Nc2ccc(F)cc2)n1`, for which the max response was 6.92%.

On to `COc1ccccc1CNc1ncncc1-c1ccccc1Cl`, for which the max response came out at 24.1%.

For the compound `CC(=O)[C@]1(O)CCC2C3CC(C)C4=CC(=O)C=CC4(C)[C@@]3(F)C(O)C[C@]21C` (stereo partly drawn), the max response was 24.1%.

For `Cc1cnc(CNc2ncnc3ccc(-c4ccccc4Cl)cc23)cn1`, the max response came out at 23.5%.

Turning to `C=C1C([C@@]2(C)C(OC(C)=O)CC(=O)O[C@@](C)(COC(C)=O)C2CC(=O)OC)C(OC=O)C(OC(=O)C(O)C(C)CC)[C@]2(C)C(c3ccoc3)CC(=O)C12O` (stereo partly drawn), the max response was -9.65%.

In the case of `Cn1cc(-c2nc3cnc(Oc4ccccc4)nc3n(CCC#N)c2=O)c2ccccc21`, the max response amounted to 7.77%.

Turning to `Cc1cccc(CNc2cc(-c3ccccc3Cl)ncn2)c1`, the max response amounted to 13.4%.

With `COCCNc1nc(-c2ccccc2C(F)(F)F)nc2ccccc12`, the max response was 12.6%.

Regarding `O=c1c(-c2ccc(F)cc2)nc2cnc(Nc3ccccc3)nc2n1Cc1cccs1`, the max response amounted to 7.26%.

For `COc1ccc(-c2nc3cnc(Nc4ccccc4)nc3n(CCC#N)c2=O)cc1`, the max response was found to be 83.3%.

As for `COc1ccc(NC(=O)N2CCCC3(CCN(C(=O)c4cccc(F)c4)CC3)C2)cc1`, the max response was determined as 13%.

`COc1ccc(C(=O)N2CCC[C@@]3(CCN(Cc4cc(C(F)(F)F)cc(C(F)(F)F)c4)C3)C2)cc1`: the max response was 15.3%.

Turning to `CC(C)[N+]1(C)C2CCC1CC(OC(=O)C(CO)c1ccccc1)C2` (stereo not drawn), the max response amounted to 21.8%.

With `CC1(C)CC[C@]2(C(=O)O)C(O)C[C@@]3(C)C(=CCC4[C@@]5(C)CCC(O)C(C)(C)C5CC[C@@]43C)C2C1` (stereo partly drawn), the max response was found to be 6.57%.

As to `O=C(O)[C@H]1C[C@@H](CP(=O)(O)O)CCN1`, the max response stood at 26%.

In the case of `O=C(c1csnn1)N1CCC2(CC1)CCN(c1ccccn1)CC2`, the max response turned out to be 24.9%.

As for `COc1ccc(NC(=O)N2CC3(CCN(C(=O)c4cnccn4)CC3)C2)cc1`, the max response was 13%.

Turning to `O=c1c(-c2ccccc2)nc2cnc(Oc3ccccc3)nc2n1C[C@H]1CCCO1`, the max response is -0.717%.

As for `Fc1ccc(Nc2ccnc(-c3ccc4c(c3)OCO4)n2)cc1`, the max response stood at 15.9%.

As for `N#CCCn1c(=O)c(-c2cc(F)cc(F)c2)nc2cnc(N3CCOCC3)nc21`, the max response amounted to 17.4%.

With `C#CCCCCCCCCCCCC(O)CC(O)COC(C)=O` (stereo not drawn), the max response was determined as 14.5%.

As to `COc1ccc(-c2nc3cnc(N4CCOCC4)nc3n(CCC#N)c2=O)cc1`, the max response worked out at 20.4%.

As for `N#Cc1cccc(NC(=O)N2CCCC3(CCN(C(=O)c4ccncc4)CC3)C2)c1`, the max response was 25.7%.

With `COCC(=O)N1CCC2(CCCN(C(=O)Nc3cccc(C#N)c3)C2)CC1`, the max response worked out at 28.1%.

In the case of `COC(=O)C1C(O)CC[C@@H]2CN3CCc4c([nH]c5ccccc45)C3C[C@@H]12` (stereo partly drawn), the max response came to 22.2%.

As for `COc1cc(C(C)=O)cc(OC)c1O`, the max response stood at 25.3%.

As for `COc1ccc2[nH]cc(CCNc3ncnc4ccc(-c5ccccc5OC)cc34)c2c1`, the max response is -10.9%.

Turning to `COc1cccc(Nc2ncc3nc(-c4ccccc4)c(=O)n(C[C@H]4CCCO4)c3n2)c1`, the max response was -8%.

For `c1cncc(-c2nc(NCCN3CCOCC3)c3ccccc3n2)c1`, the max response is 17%.

For `COC(=O)CCC(C)C1CCC2C3C(C[C@H](O)C12C)C1(C)CC[C@@H](O)CC1C[C@H]3O` (stereo partly drawn), the max response stood at 27.4%.

The same assay, now with this note: Drosophila S3 cells, BODIPY lipid droplet/cell ratio, laser cytometry; measured here: lipid (BODIPY) channel AC50; cells loaded with oleic acid.
`COc1cccc(Nc2ncc3nc(-c4cccs4)c(=O)n(C[C@H]4CCCO4)c3n2)c1`: the AC50 was 39.8 µM [falling, single point].

Regarding `CN(Cc1ccco1)c1ccnc(-c2ccoc2)n1`, the AC50 was 39.8 µM [rising, single point].

Take `CC(=O)N1CCC2(CCCN(c3ccc(-c4ccccc4)cc3)C2)CC1`: the AC50 was 2 µM [rising, partial curve].

In the case of `O=c1c(CCc2ccccc2)nc2cnc(N3CCNCC3)nc2n1-c1ccccc1`, the AC50 is 20 µM [rising, single point].

With `Cn1c(=O)c(-c2ccccc2)nc2cnc(Oc3ccccc3)nc21`, the AC50 is 0.0282 µM [rising, full curve, poor fit].

In the case of `COc1cccc(Cn2c(=O)c(C)nc3cnc(N4CCNCC4)nc32)c1`, the AC50 was 0.0501 µM [rising, full curve, poor fit].

For the compound `O=c1c(-c2ccccc2)nc2cncnc2n1Cc1ccccc1Cl`, the AC50 is 0.0224 µM [rising, full curve].

Take `O=c1c(CCc2ccccc2)nc2cnc(Oc3ccccc3)nc2n1C1CC1`: the AC50 was 2.82 µM [rising, single point].

Turning to `CC1CC2C3CC(F)C4=CC(=O)C=C[C@@]4(C)[C@@]3(F)C(O)C[C@]2(C)[C@]1(O)C(=O)COC(=O)C(C)(C)C` (stereo partly drawn), the AC50 is 11.2 µM [falling, partial curve, poor fit].

With `Cc1noc(C)c1-c1nccc(Nc2ccc(F)cc2)n1`, the AC50 was 3.16 µM [rising, partial curve].

As for `COc1ccccc1CNc1ncncc1-c1ccccc1Cl`, the AC50 was 0.631 µM [rising, full curve, poor fit].

Consider `CC(=O)[C@]1(O)CCC2C3CC(C)C4=CC(=O)C=CC4(C)[C@@]3(F)C(O)C[C@]21C` (stereo partly drawn), for which the AC50 is 39.8 µM [rising, single point].

`Cc1cnc(CNc2ncnc3ccc(-c4ccccc4Cl)cc23)cn1`: the AC50 was 1.78 µM [rising, full curve, poor fit].

Regarding `C=C1C([C@@]2(C)C(OC(C)=O)CC(=O)O[C@@](C)(COC(C)=O)C2CC(=O)OC)C(OC=O)C(OC(=O)C(O)C(C)CC)[C@]2(C)C(c3ccoc3)CC(=O)C12O` (stereo partly drawn), the AC50 was 3.98 µM [falling, partial curve].

For the compound `Cn1cc(-c2nc3cnc(Oc4ccccc4)nc3n(CCC#N)c2=O)c2ccccc21`, the AC50 is 7.94 µM [rising, partial curve, poor fit].

As to `Cc1cccc(CNc2cc(-c3ccccc3Cl)ncn2)c1`, the AC50 was 7.94 µM [rising, single point].

With `COCCNc1nc(-c2ccccc2C(F)(F)F)nc2ccccc12`, the AC50 was 0.00708 µM [rising, full curve, poor fit].

For the compound `O=c1c(-c2ccc(F)cc2)nc2cnc(Nc3ccccc3)nc2n1Cc1cccs1`, the AC50 was 0.891 µM [rising, single point].

For `COc1ccc(NC(=O)N2CCCC3(CCN(C(=O)c4cccc(F)c4)CC3)C2)cc1`, the AC50 is 2 µM [rising, full curve, poor fit].

`COc1ccc(C(=O)N2CCC[C@@]3(CCN(Cc4cc(C(F)(F)F)cc(C(F)(F)F)c4)C3)C2)cc1`: the AC50 was 3.16 µM [rising, partial curve, poor fit].

On to `CC(C)[N+]1(C)C2CCC1CC(OC(=O)C(CO)c1ccccc1)C2` (stereo not drawn), for which the AC50 was 39.8 µM [rising, single point].

For the compound `CC1(C)CC[C@]2(C(=O)O)C(O)C[C@@]3(C)C(=CCC4[C@@]5(C)CCC(O)C(C)(C)C5CC[C@@]43C)C2C1` (stereo partly drawn), the AC50 is 28.2 µM [rising, partial curve, poor fit].

For `O=C(O)[C@H]1C[C@@H](CP(=O)(O)O)CCN1`, the AC50 was 31.6 µM [rising, single point].

For the compound `O=C(c1csnn1)N1CCC2(CC1)CCN(c1ccccn1)CC2`, the AC50 was 0.0708 µM [rising, full curve, poor fit].

Consider `COc1ccc(NC(=O)N2CC3(CCN(C(=O)c4cnccn4)CC3)C2)cc1`, for which the AC50 is 0.0224 µM [rising, full curve, poor fit].

On to `O=c1c(-c2ccccc2)nc2cnc(Oc3ccccc3)nc2n1C[C@H]1CCCO1`, for which the AC50 was 28.2 µM [falling, single point].

Take `Fc1ccc(Nc2ccnc(-c3ccc4c(c3)OCO4)n2)cc1`: the AC50 was 1 µM [rising, full curve].

With `N#CCCn1c(=O)c(-c2cc(F)cc(F)c2)nc2cnc(N3CCOCC3)nc21`, the AC50 was 2.82 µM [rising, single point].

As for `C#CCCCCCCCCCCCC(O)CC(O)COC(C)=O` (stereo not drawn), the AC50 was 11.2 µM [rising, partial curve, poor fit].

`COc1ccc(-c2nc3cnc(N4CCOCC4)nc3n(CCC#N)c2=O)cc1`: the AC50 is 0.316 µM [rising, full curve, poor fit].

With `N#Cc1cccc(NC(=O)N2CCCC3(CCN(C(=O)c4ccncc4)CC3)C2)c1`, the AC50 was 1 µM [rising, full curve, poor fit].

Regarding `COCC(=O)N1CCC2(CCCN(C(=O)Nc3cccc(C#N)c3)C2)CC1`, the AC50 is 5.62 µM [rising, partial curve].

Consider `COC(=O)C1C(O)CC[C@@H]2CN3CCc4c([nH]c5ccccc45)C3C[C@@H]12` (stereo partly drawn), for which the AC50 is 39.8 µM [rising, single point].

For the compound `COc1cc(C(C)=O)cc(OC)c1O`, the AC50 was 39.8 µM [rising, single point].

`COc1ccc2[nH]cc(CCNc3ncnc4ccc(-c5ccccc5OC)cc34)c2c1`: the AC50 is 0.708 µM [rising, full curve].

`COc1cccc(Nc2ncc3nc(-c4ccccc4)c(=O)n(C[C@H]4CCCO4)c3n2)c1`: the AC50 was 20 µM [falling, single point].

Take `c1cncc(-c2nc(NCCN3CCOCC3)c3ccccc3n2)c1`: the AC50 was 0.562 µM [rising, full curve, poor fit].

With `COC(=O)CCC(C)C1CCC2C3C(C[C@H](O)C12C)C1(C)CC[C@@H](O)CC1C[C@H]3O` (stereo partly drawn), the AC50 is 15.8 µM [rising, full curve, poor fit].
